{
  "source": "PubChem BioAssay AID445",
  "about": "(National Center for Advancing Translational Sciences (NCATS), 2006)",
  "note": "Among all 110,000 compounds or so, about 40 (0.04%) were called active. The shares of active, inactive and inconclusive entries below differ from those in the screen. Calls come from the whole dose curve; as a rule, active = well fitted curve in the direction sought with a large enough effect in the signal ratio (not every such curve was filed as active); inconclusive = small, poorly fitted or top-dose-only effect, or a change in a side signal; inactive = flat fitted curve, though single readings scatter; the % refers to the signal ratio. Potencies beside an inconclusive call are fits to weak or partial responses and may not hold up. Potency is the fitted concentration of half-maximal effect.",
  "data": [
    {"assay": "IkB Signaling;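 for IkBa stabilization activation: 0% = basal untreated cells and 100% = reference inhibitor full response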", "conditions": "ABC-DLBCL IkBa-CBG/CBR dual luciferase ratio (green luciferase fused to IkBa over red control in OCI-Ly3 lymphoma cells), 4 h; IkBa stabilization activation: at 57.1 µM (top of the series), scaled: untreated 0%, proteasome inhibitor 100% unless noted", "how_it_was_run": "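Curves were fitted separately to fusion (green), unfused (red) and ratio luminescence, then classed by r2, magnitude and activity. Cells: OCI-Ly3, 4 h compound plus doxycycline at 37C; 10 uM MG-132 defined full response.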", "values": [
      {"smiles": "Cn1nnc2c(N3CCN(c4ccccc4Cl)CC3)ncnc21", "IkBa stabilization activation": "inactive: 0.558%"},
      {"smiles": "CC(C)(C)c1ccc(-c2nc(SCCCOc3ccccc3)n3[nH]c(=O)cc3n2)cc1", "IkBa stabilization activation": "inconclusive: 0.243% [signal inhibitor]"},
      {"smiles": "COc1ccc(-c2c3c(=O)n(C)c(=O)n(C)c3c3c(C)nc4ccccc4n23)cc1", "IkBa stabilization activation": "inconclusive: -0.946% [signal inhibitor]"},
      {"smiles": "Cc1ccc(-c2nnc(SCc3cccc(C#N)c3)o2)cc1", "IkBa stabilization activation": "inconclusive: 2.14% [signal inhibitor]"},
      {"smiles": "COc1nc(N(c2ccccc2)c2ccccc2)nc(-n2ccnc2)n1", "IkBa stabilization activation": "inconclusive: 0.889% [signal inhibitor]"},
      {"smiles": "CCOC(=O)Cn1c(=O)n(-c2ccccc2OC)c2nc(-c3cccc(F)c3)nc(C(N)=O)c21", "IkBa stabilization activation": "inconclusive: 1.77% [signal inhibitor]"},
      {"smiles": "Cc1ccc2nc3c(cc2c1)c(NC(=O)c1cccnc1)nn3C", "IkBa stabilization activation": "inactive: -7.22%"},
      {"smiles": "CCCCc1ccc(NC(=O)c2ccc(=O)n(Cc3cccc(C)c3)c2)cc1", "IkBa stabilization activation": "inconclusive: 0.917% [signal inhibitor]"},
      {"smiles": "Nc1nc(SCCc2ccccc2)c2[nH]cnc2n1", "IkBa stabilization activation": "inactive: 0.409% [at 11.4 µM, scaled: untreated 0%, proteasome inhibitor 100%]"},
      {"smiles": "COc1ccc(-c2nc(C)c(CCNS(=O)(=O)c3cc(C)c(C)cc3C)s2)cc1", "IkBa stabilization activation": "inconclusive: 1.03% [signal inhibitor]"},
      {"smiles": "COc1cccc(N2CCN(C(=O)CCc3c(C)nc4c(c3C)c(=O)n(C)c(=O)n4C)CC2)c1", "IkBa stabilization activation": "inconclusive: 4.48% [signal inhibitor]"},
      {"smiles": "Cc1ccccc1-n1c(SCc2ccc(Cl)cc2)nc2[nH]ncc2c1=O", "IkBa stabilization activation": "inconclusive: -4.42% [signal inhibitor]"},
      {"smiles": "Cc1c(-c2ccc(O)cc2)nn(-c2ccc(O)cc2)c1-c1ccc(OCCN2CCCCC2)cc1", "IkBa stabilization activation": "inconclusive: -0.406% [signal inhibitor]"},
      {"smiles": "CCC(C)NC(=O)c1ccc2c(c1)N(Cc1ccccc1)C(=O)c1ccccc1S2", "note": "(stereo not given)", "IkBa stabilization activation": "inconclusive: -0.152% [signal inhibitor]"},
      {"smiles": "CCOc1ccc2[nH]c(=O)c(CN(Cc3nnnn3Cc3ccco3)C3CCCCC3)cc2c1", "Potency": "inconclusive: 39.8 µM [signal inhibitor, single point]"},
      {"smiles": "O=[N+]([O-])c1ccccc1Nc1ccccc1", "IkBa stabilization activation": "inactive: -1.53%"},
      {"smiles": "Cc1cc(C)n(-c2nncc(-c3ccccc3)n2)n1", "IkBa stabilization activation": "inconclusive: 13.4% [signal inhibitor]"},
      {"smiles": "O=C(Nc1ccc(Cl)cc1)Nc1ccc2c(c1)N1CCN=C1S2", "IkBa stabilization activation": "inactive: -0.371%"},
      {"smiles": "CN(C)c1nc(N)nc(Cn2ccnc2)n1", "IkBa stabilization activation": "inactive: -5.86%"},
      {"smiles": "COc1ccc(C(=O)n2nc(-c3ccco3)nc2NCc2cccs2)cc1OC", "IkBa stabilization activation": "inactive: -3.12%"},
      {"smiles": "Cc1ccc(-c2nc3sc(CCNC(=O)c4ccc(C)c(C)c4)c(C)n3n2)cc1", "IkBa stabilization activation": "inconclusive: 0.203% [signal inhibitor]"},
      {"smiles": "O=C(CCS(=O)(=O)c1cccs1)Nc1ccc(C(=O)Nc2ccccc2F)cc1", "IkBa stabilization activation": "inconclusive: 0.631% [signal inhibitor]"},
      {"smiles": "CCSc1ncc(Cl)c(C(=O)Nc2ccc(S(=O)(=O)N3CCCCC3)cc2)n1", "IkBa stabilization activation": "inconclusive: -1.17% [signal inhibitor]"},
      {"smiles": "Cc1ccc(C)c(Cn2cc(S(=O)(=O)c3ccc(Cl)cc3)c(=O)c3cc(F)ccc32)c1", "IkBa stabilization activation": "inconclusive: 0.296% [signal inhibitor]"},
      {"smiles": "CCCCN(CCCC)CCNC(=O)c1cn(CC)c2ccc(S(=O)(=O)N(C)C3CCCCC3)cc2c1=O", "IkBa stabilization activation": "inconclusive: -2.7% [signal inhibitor]"},
      {"smiles": "Cc1ccc(-c2c(C)n3c4c(=O)n(C)c(=O)n(C)c4nc3n2CCO)cc1", "IkBa stabilization activation": "inconclusive: 2.49% [signal inhibitor]"},
      {"smiles": "CC(=O)N1CCc2c(sc3c2c(=O)n(CCc2ccccc2)c(=O)n3Cc2ccc(Cl)cc2)C1", "IkBa stabilization activation": "inconclusive: 0.287% [signal inhibitor]"},
      {"smiles": "CCOC(=O)C1CCN(C(=O)Cn2c(=O)oc3cc(S(=O)(=O)N4CCC(C)CC4)ccc32)CC1", "IkBa stabilization activation": "inactive: 0.897%"},
      {"smiles": "O=C(Nc1cccc(F)c1)N1CCCC2(CCN(C(=O)c3cc(C(F)(F)F)cc(C(F)(F)F)c3)CC2)C1", "IkBa stabilization activation": "inactive: 3.85% [at 11.4 µM, scaled: untreated 0%, proteasome inhibitor 100%]"},
      {"smiles": "CCOCCCNc1ncnc2c1cnn2-c1ccc(C)c(C)c1", "IkBa stabilization activation": "inconclusive: 3.11% [signal inhibitor]"},
      {"smiles": "CC(=O)c1cc(-c2nc3ccccc3n2C)n(C)c1", "IkBa stabilization activation": "inactive: 0.0578%"},
      {"smiles": "CCOC(=O)Cc1csc(SCC(=O)Nc2sc3c(c2C(N)=O)CCC3)n1", "IkBa stabilization activation": "inconclusive: 2.24% [signal inhibitor]"},
      {"smiles": "CCOc1nc(NCCc2ccc(OC)c(OC)c2)nc(NC(C)(C)CO)n1", "IkBa stabilization activation": "inconclusive: -0.468% [signal inhibitor]"},
      {"smiles": "Cc1ccccc1NC(=O)Cn1c(=O)n(Cc2ccccc2)c(=O)c2sc3ccccc3c21", "IkBa stabilization activation": "inactive: -2.12%"},
      {"smiles": "CCOc1ccc(C(=O)NCC(c2ccco2)S(=O)(=O)c2cccs2)cc1", "note": "(stereo not given)", "IkBa stabilization activation": "inconclusive: -0.982% [signal inhibitor]"},
      {"smiles": "O=C(CSc1nc(O)c(Cc2ccccc2)c(=O)[nH]1)Nc1ccccc1", "IkBa stabilization activation": "inconclusive: 5.15% [signal inhibitor]"},
      {"smiles": "CC(=O)N1CCN(c2ccc(NCc3ccc4c(c3)OCO4)cc2)CC1", "IkBa stabilization activation": "inactive: 0.544%"},
      {"smiles": "Cc1nn(-c2ccc(N3CCCC3)nn2)c(C)c1CCC(=O)N1CCN(c2ccccc2)CC1", "IkBa stabilization activation": "inconclusive: 0.0589% [signal inhibitor]"},
      {"smiles": "c1ccc(-n2cnc3cc(NCc4ccccn4)ccc32)cc1", "IkBa stabilization activation": "inactive: 2.74%"},
      {"smiles": "c1cncc(-c2nnc(-c3cccs3)o2)c1", "IkBa stabilization activation": "inactive: 0.3%"},
      {"smiles": "CCCN(c1ccc(C(C)C)cc1)S(=O)(=O)c1ccc2c(c1)oc(=O)n2CC(=O)OCC", "IkBa stabilization activation": "inconclusive: 2.55% [signal inhibitor]"},
      {"smiles": "CCN1CCN(C(=O)c2cnn3c(C(F)F)cc(-c4ccc(C)cc4)nc23)CC1", "IkBa stabilization activation": "inactive: -1.17%"},
      {"smiles": "COc1ccc(-c2nc(CNC(=O)Nc3ccccc3)c(C)o2)cc1", "IkBa stabilization activation": "inconclusive: 2.43% [signal inhibitor]"},
      {"smiles": "COc1cccc(NC(=O)c2oc3ccccc3c2NC(=O)C2CC2)c1", "IkBa stabilization activation": "inconclusive: 6.61% [signal inhibitor]"},
      {"smiles": "CCN(CCNC(=O)C1CCN(Cc2nc(-c3cccc(Cl)c3)oc2C)CC1)c1ccccc1", "IkBa stabilization activation": "inconclusive: -4.56% [signal inhibitor]"},
      {"smiles": "Cc1cc(-n2c(C)cc(C(=O)CSc3ncnc4ccccc34)c2C)no1", "IkBa stabilization activation": "inconclusive: 3.06% [signal inhibitor]"},
      {"smiles": "CCOC(=O)c1ccc(N2C(=O)c3n[nH]c(C)c3C2c2ccc(OCC)cc2)cc1", "note": "(stereo not given)", "IkBa stabilization activation": "inconclusive: 0.0652% [signal inhibitor]"},
      {"smiles": "O=C(CSc1ncccc1-c1nc2ccccc2[nH]1)N1CCCCC1", "Potency": "inconclusive: 2 µM [signal inhibitor, full curve]"},
      {"smiles": "CCCCCCCC/C=C\\CCCCCCCC(N)=O", "IkBa stabilization activation": "inactive: 0.0257%"},
      {"smiles": "COc1ccc(-c2nc(-c3ccc(Br)o3)no2)cc1OC", "IkBa stabilization activation": "inactive: -0.777%"},
      {"smiles": "C=CCOC(=O)c1sc(N2C(=O)c3oc4ccccc4c(=O)c3C2c2ccco2)nc1C", "note": "(stereo not given)", "IkBa stabilization activation": "inconclusive: 14.1% [signal inhibitor]"},
      {"smiles": "COc1ccc(C(=O)Nc2nnc(C)s2)cc1", "IkBa stabilization activation": "inconclusive: 6.79% [signal inhibitor]"},
      {"smiles": "CC(C)Cn1c(=O)c2ccccc2n2c(CCC(=O)N3CCN(c4ccccc4)CC3)nnc12", "IkBa stabilization activation": "inconclusive: -1.59% [signal inhibitor]"},
      {"smiles": "CC(C)c1ccc(C2c3c(-c4ccccc4O)n[nH]c3C(=O)N2Cc2ccncc2)cc1", "note": "(stereo not given)", "IkBa stabilization activation": "inconclusive: 2.02% [signal inhibitor]"},
      {"smiles": "Cc1ccn2c(Nc3ccc4c(c3)OCCO4)c(-c3cccs3)nc2c1", "IkBa stabilization activation": "inconclusive: 7% [signal inhibitor]"},
      {"smiles": "CC(=O)c1c(C)[nH]c(C(=O)NCCc2ccccc2)c1C", "IkBa stabilization activation": "inconclusive: 6.94% [signal inhibitor]"},
      {"smiles": "Cc1ccccc1-c1nnc(-c2ccccc2)o1", "IkBa stabilization activation": "inconclusive: 9.93% [signal inhibitor]"},
      {"smiles": "CCc1ccc(C2CC(=O)c3c([nH]c(C(=O)OCCOc4ccccc4)c3C)C2)cc1", "note": "(stereo not given)", "IkBa stabilization activation": "inactive: -0.85%"},
      {"smiles": "O=C(CSc1nnc(-c2ccc(Cl)cc2)o1)Nc1ccc(F)cc1", "IkBa stabilization activation": "inconclusive: 14.8% [signal inhibitor]"},
      {"smiles": "CC(=O)N1CCc2c(sc3c2c(=O)n(CCc2ccccc2)c(=O)n3CC(=O)Nc2ccc(C)c(F)c2)C1", "IkBa stabilization activation": "inconclusive: 4.35% [signal inhibitor]"},
      {"smiles": "Cn1c(C(=O)NCc2ccccn2)cc2c(=O)n(C)c3ccccc3c21", "IkBa stabilization activation": "inactive: 0.281%"},
      {"smiles": "CC(C)C12CN3CC(C(C)C)(CN(C1)C3c1ccccc1O)C2=O", "note": "(stereo not given)", "IkBa stabilization activation": "inactive: 4.27%"},
      {"smiles": "COc1cccc2c1Oc1ncccc1N(c1ccc(C(=O)NCc3ccccc3Cl)s1)C2", "IkBa stabilization activation": "inactive: -2.34%"},
      {"smiles": "Cc1[nH]c2ccccc2c1C1(O)C(=O)N(Cc2ccccc2Cl)c2ccccc21", "note": "(stereo not given)", "IkBa stabilization activation": "inconclusive: 1.17% [signal inhibitor]"},
      {"smiles": "O=C1CN(C(=O)c2ccco2)C(c2ccc(F)cc2)c2cc(Cl)ccc2N1", "note": "(stereo not given)", "IkBa stabilization activation": "inconclusive: 5.57% [signal inhibitor]"},
      {"smiles": "CCOc1ccc(OCC)c(NC(=O)CCc2nc3cccnc3n2-c2ccccc2)c1", "IkBa stabilization activation": "inconclusive: 2.93% [signal inhibitor]"},
      {"smiles": "O=C(NCC(c1ccc(Cl)cc1)N1CCCCC1)c1ccccc1F", "note": "(stereo not given)", "IkBa stabilization activation": "inactive: 0.456%"},
      {"smiles": "COC(=O)C(NC(=O)CCc1c(C)nc2c(c(C)nn2-c2ccccc2)c1C)C(C)C", "note": "(stereo not given)", "IkBa stabilization activation": "inconclusive: 1.95% [signal inhibitor]"},
      {"smiles": "Cc1ccccc1NC(=O)[C@H](CSCc1ccccc1)N1Cc2ccccc2C1=O", "IkBa stabilization activation": "inconclusive: -0.913% [signal inhibitor]"},
      {"smiles": "CCN(CC)C(=O)C1CCN(c2nnc(C)c3c(C)n(-c4ccc(Cl)cc4)nc23)CC1", "IkBa stabilization activation": "inconclusive: 0.804% [signal inhibitor]"}
    ]}
  ]
}
